In the supplement of paper PMC3334620:
Over roughly 33,000 sequences, “E-score (-0.5 to 0.5)” has its median near -0.012; the highest 2% begin near 0.27. Some of the results follow.

What follows are sequences tested against T1, Vhr1 (UniProt P40522) (assay: PBM E-score (8-mer binding enrichment) (E-score (-0.5 to 0.5)); higher = stronger / more preferred TF binding; most listed sequences are background and not binding sites). Conditions: protein concentration: 200 nM; construct: GST-full length.
T1 sequence: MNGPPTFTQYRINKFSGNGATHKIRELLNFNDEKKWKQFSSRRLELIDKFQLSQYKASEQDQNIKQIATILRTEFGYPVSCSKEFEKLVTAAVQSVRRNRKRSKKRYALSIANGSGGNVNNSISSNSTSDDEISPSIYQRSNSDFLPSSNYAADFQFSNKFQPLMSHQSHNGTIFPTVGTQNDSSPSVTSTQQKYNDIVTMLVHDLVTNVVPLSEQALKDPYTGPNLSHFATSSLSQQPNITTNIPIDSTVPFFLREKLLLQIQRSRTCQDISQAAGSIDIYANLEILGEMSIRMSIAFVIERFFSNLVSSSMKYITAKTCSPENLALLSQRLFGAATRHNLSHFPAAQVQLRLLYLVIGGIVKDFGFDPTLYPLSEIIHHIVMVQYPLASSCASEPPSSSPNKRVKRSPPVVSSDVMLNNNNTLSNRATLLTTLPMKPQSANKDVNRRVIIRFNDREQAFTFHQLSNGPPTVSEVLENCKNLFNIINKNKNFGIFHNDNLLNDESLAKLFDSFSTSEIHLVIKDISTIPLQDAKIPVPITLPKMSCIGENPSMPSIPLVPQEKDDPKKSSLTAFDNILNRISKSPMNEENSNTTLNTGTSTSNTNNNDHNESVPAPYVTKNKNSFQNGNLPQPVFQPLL
In short: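 For each ungapped eight-base word taken together with its reverse complement, the Universal PBM Analysis Suite assigned an E-score. Binding data came from GST-tagged yeast transcription factors, applied at about 100-200 nM, on universal all-10-mer Agilent arrays made double-stranded by primer extension. Fluorescent anti-GST marked bound protein, and scans were normalised with masliner.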

| Sequence | PBM E-score |
| --- | --- |
| AGTTCTCA | 0.0774 |
| CGGCGAAG | -0.136 |
| GTATTGAA | 0.0354 |
| AAAAAATA | -0.112 |
| TCTGGCAA | -0.189 |
| GCTACTCC | -0.145 |
| CTGTAAAA | -0.122 |
| ACAGTATA | 0.11 |
| AGCTCGAT | 0.237 |
| GATCTGGA | 0.0234 |
| GAAGCTAA | -0.215 |
| CGCAGGCA | 0.0774 |
| ATACGTAA | -0.0869 |
| CCAACCAG | 0.127 |
| CAAATGGG | 0.0359 |
| GGAGCCAC | 0.165 |
| ACTATTAT | 0.153 |
| ACTGGTTC | 0.0182 |
| CCGCTGCG | -0.00887 |
| ATGGTCTC | 0.00212 |
| ATCGAGCA | -0.00467 |
| CCGACACG | 0.0261 |

| Sequence | PBM E-score |
| --- | --- |
| ATGGGTGA | 0.322 |
| CTCTCTAC | -0.103 |
| GGGCACCA | -0.177 |
| CGGTCGCA | -0.104 |
| GTTCCACA | -0.103 |
| CACGCCGA | 0.163 |
| AATCCGGG | 0.0326 |
| ACCCTGTC | -0.0143 |
| AGTAAGTA | 0.0778 |
| CGGTCCCA | -0.0802 |
| CCGGCGAA | 0.0401 |
| AATAGATA | 0.12 |
| GTCACGTA | 0.13 |
| CTCGCGAG | 0.14 |
| AATGTTGT | 0.0078 |
| CTCTCCCC | -0.0438 |
| CGTCACGA | 0.00392 |
| CGGCTACA | 0.153 |
| GCTTTTCA | -0.241 |
| AGGCACTC | -0.0419 |
| ACCCGAAC | 0.0967 |
| ATGGTACA | 0.228 |

| Sequence | PBM E-score |
| --- | --- |
| AGGGGTTG | 0.0767 |
| TGCGACAA | -0.00077 |
| GAAGAAGC | -0.107 |
| ATTAGGGG | -0.162 |
| CGCCCCCA | -0.127 |
| GCTACTAA | -0.0624 |
| ATAGCATA | 0.161 |
| GCCGGGGA | -0.0234 |
| GGAGCCAA | -0.135 |
| AACGCGGA | -0.0374 |
| AGGTACAC | 0.0298 |
| TAGACCCA | 0.0873 |
| CACCCACA | 0.241 |
| CCACGGGA | -0.0899 |
| GATTATCC | 0.0985 |
| CCGCCAGG | -0.139 |
| CAGTGAGC | 0.0804 |
| TCCTCCCA | -0.181 |
| AGGAAGGG | -0.35 |
| CTCTAGCA | -0.196 |
| AATCTTGG | -0.0367 |
| CGGCCGTA | -0.0427 |

| Sequence | PBM E-score |
| --- | --- |
| ACTGTAGC | -0.0776 |
| AAAAAAAA | 0.0125 |
| GGTAACGA | 0.168 |
| ACGTATGA | 0.155 |
| ACGATTTA | 0.113 |
| GGAATCCA | 0.0687 |
| CGGGGCAC | -0.14 |
| CCGGAATC | 0.259 |
| CTACGGCC | -0.264 |
| CGTTCCCC | 0.0185 |
| TGAATGCA | 0.0567 |
| ACCCTACA | 0.0564 |
| CCGCAGGC | -0.012 |
| CATTCGAC | 0.16 |
| AAGCAGAA | -0.123 |
| AATTGGGC | -0.208 |
| CCTAGTGC | -0.00138 |
| AAGCCACT | -0.0197 |
| ACCCCTCC | 0.0742 |
| ACGAGACT | -0.0664 |
